The supplement of paper PMC3334620
Whole data set: some 33,000 sequences, median “E-score (-0.5 to 0.5)” near -0.032, cut for the highest 2% near 0.36. Some of the results follow.

These sequences were tested against T1, Sko1 (UniProt Q02100) (assay: PBM E-score (8-mer binding enrichment) (E-score (-0.5 to 0.5)); higher = stronger / more preferred TF binding; most listed sequences are background and not binding sites). Settings: protein concentration: 200 nM; construct: GST-full length.
T1 sequence: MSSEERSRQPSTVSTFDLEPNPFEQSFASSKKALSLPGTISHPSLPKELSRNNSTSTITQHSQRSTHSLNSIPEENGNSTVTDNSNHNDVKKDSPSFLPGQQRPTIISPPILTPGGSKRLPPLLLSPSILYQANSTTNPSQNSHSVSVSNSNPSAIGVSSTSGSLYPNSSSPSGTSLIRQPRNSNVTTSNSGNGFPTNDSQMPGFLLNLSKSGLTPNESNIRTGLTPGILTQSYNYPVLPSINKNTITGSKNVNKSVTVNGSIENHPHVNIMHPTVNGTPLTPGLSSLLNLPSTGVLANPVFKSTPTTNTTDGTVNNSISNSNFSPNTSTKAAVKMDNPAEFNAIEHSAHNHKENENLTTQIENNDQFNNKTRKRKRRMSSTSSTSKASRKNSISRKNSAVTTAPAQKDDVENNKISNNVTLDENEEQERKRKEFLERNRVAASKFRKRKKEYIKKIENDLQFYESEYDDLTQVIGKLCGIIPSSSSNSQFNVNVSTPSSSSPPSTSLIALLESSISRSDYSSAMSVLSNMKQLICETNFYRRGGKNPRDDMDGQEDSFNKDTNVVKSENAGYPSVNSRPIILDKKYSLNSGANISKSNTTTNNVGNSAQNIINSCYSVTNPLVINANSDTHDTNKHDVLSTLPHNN
Experimental: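 Universal 'all 10-mer' protein binding microarrays (Agilent AMADID 015681) probed with GST-tagged S. cerevisiae TFs (full-length or DBD) made by in vitro transcription/translation (PURExpress), about 100-200 nM. Bound TF was detected with fluorescent anti-GST. Each ungapped 8-mer (which stands for itself and its reverse complement) is scored by the PBM enrichment score (E-score), a modified Wilcoxon-Mann-Whitney statistic from -0.5 to +0.5, computed with the Universal PBM Analysis Suite. Scale: above 0.35 generally sequence-specific binding.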

Sequence	PBM E-score
CCATACAC	-0.0195
AAGCCACG	0.0746
AGCGCGAG	-0.178
TAATCCGA	0.192
CTTAAAAG	-0.0915
CGAGATAG	-0.0941
ATTCGCAG	0.133
ACAAGGAG	0.0965
AAGTTAGA	-0.03
ACAAGATG	-0.0878
ACTATCTG	-0.0654
AAGTGCAT	0.196
CCCTCCAA	-0.136
AGGCTCAT	-0.232
ACCAGAAA	-0.0412
ACAGAAAT	0.037
TCGAAGAA	0.0891
ACCTGTAA	-0.0978
CCCAGTAA	-0.0661
GCGTTAAC	0.0751
CTTTATGC	-0.0461
ACATCGAG	-0.0809
TTGTAAAA	0.133
CGGGAGGC	-0.217
ATTGGATC	-0.0341

Sequence	PBM E-score
TGGTACAA	0.00028
ACTAATCC	-0.0743
GCCTGCCC	-0.24
TATTATGA	0.255
CTGAGTTA	-0.0647
AACCGCGG	-0.0169
AAGCGCCT	-0.233
GAGGGCCC	-0.403
CACTTTGA	-0.0608
GCATTGGC	-0.115
TAGGCATA	-0.0703
CGAATTTA	0.239
ACCCCTGC	-0.297
GCAATGTA	0.0506
AGCCAACA	-0.00051
AGAGCGAT	-0.16
ATCTCAGG	-0.0616
AGGGTGGG	-0.0285
ACGCGTGC	0.201
ACCAAAGC	-0.0679
ATGATTTG	0.0744
CATGTTAG	0.0472
AGCCGGCA	-0.306
GCACGTCA	0.477
CCTACAAC	0.13

Sequence	PBM E-score
GCCACACC	-0.0462
ATCACGTA	0.465
ATTTGTAG	0.143
AAGTAATG	0.0878
CGGACGGC	-0.0445
AGTTCGCC	0.0562
ATGTGGCA	-0.0362
AATGCTAG	-0.141
AAGCGATA	-0.00191
CGGAGATC	-0.174
CAACTCTA	-0.0906
ACCTTATG	0.0351
GTCAATAA	0.179
TATGATGA	0.317
CGCTACAA	-0.0792
AAGTTTTG	-0.0133
CGAAACGA	0.141
GCGGGCGA	-0.0617
AGATCTAC	0.116
ATAGATGC	-0.0292
CAGTCGGA	-0.216
CTGAGTGC	-0.109
CTTGGTTA	-0.066
CTACTAAA	0.0411
GACCCGTA	-0.191

Sequence	PBM E-score
CCGGGCCA	-0.297
GTAAAGCA	0.205
ATAAATAC	0.23
AAATAATC	0.163
ACGCGTTC	0.104
TGGGCAAA	-0.124
CGACTCCG	-0.285
AAAGCGCA	-0.19
CTAAAATA	0.143
GAGCCATC	-0.153
CCACGAAA	0.0267
CCCTCCCG	-0.172
AACTCCCG	-0.134
TTACTCAA	0.108
CATGCCAA	-0.0243
ATGAAAGA	0.0579
ACTCGGCC	-0.151
CTTCCCCC	-0.194
ATGCATAC	0.158
AGCCATAG	-0.215
AGTGGTGA	-0.0664
ACAAAACA	0.117
CCGGACGC	-0.117
ATGTAGTG	0.0795
CTCACAGA	0.00688

Sequence	PBM E-score
GTTATAAA	0.288
GTTAGTAA	0.156
AAGACTTG	-0.0457
AGTTGCAG	-0.119
ACTTGATA	0.122
CTGCGCCC	-0.249
CCTTTACC	-0.315
CGATTGCG	0.287
AAGCTCCC	-0.344
GGTTATGA	0.0964
GGTGATCA	0.0126
CAGGCTCA	-0.118
GGCTAAGA	-0.101
AGCGCCGG	-0.204
AACCAGTT	0.102
ACGGAGTA	-0.0183
AGACATTG	-0.167
TACTGAAA	0.219
GCCCCGAC	-0.125
CGTACACC	0.146
AAAGGGCT	-0.354
ACGCGCGT	0.269
AGCCTCGG	-0.231
AGATGTCA	0.189
ACGTACAC	0.444

Sequence	PBM E-score
TATTATAA	0.181
CCAAAACG	0.171
CCACAGGA	-0.0523
AAGAGCCC	-0.168
TACACCAA	0.0162
TCGCAGAA	-0.0347
AGGCCACT	-0.16
AATAGTCT	0.0372
ACAGTTTC	0.0429
TACCAAGA	0.0282
ATGTCGGC	-0.12
GCAGTTGA	-0.111
CCCCAGCA	-0.157
AACTGCCC	-0.282
CACCCGAC	-0.0908
CTGGCGTC	0.0837
ATTCCCTA	-0.019
CCTTTTCA	-0.107
AAGCGCCA	-0.249
AGTCCAAA	-0.14
ACTTCAAT	0.064
ATTGTTGC	0.236
AGCTACTC	-0.182
GCTACATA	0.0142
CCACGACC	-0.0564

Sequence	PBM E-score
AGCCACTA	-0.198
CGGTCATC	-0.0713
CACATTAC	0.354
AAAATGGG	-0.146
AGCTCGGC	-0.0932
CACTATAG	-0.00316
GAGAAGGA	-0.155
ATATCCTA	0.0515
ACGTGCGG	0.308
CTCTTCTA	-0.00289
GGATTTAC	0.237
CCCCACGG	-0.22
GAATCTCA	-0.195
GAAGGTAA	0.0069
CTCAGATC	-0.148
ACGCCGTC	0.192
ACTAATGC	0.0674
AAGAACTG	-0.141
AGCCTGAT	0.025
ATACGCAC	0.389
ATCGTCCA	-0.0889
GGCGTCGA	0.0241
